# From the supplement of paper PMC7125110
# ± gives the standard error. Variants at the floor of the assay are shown more often than the library holds them.
# B1: glmS ribozyme (parent)
# chain: AUAAAAGCGCCAGAACUACAGAAAUGUAGUUGACGAGGAGGAGGUUUAUCGAAUUUUCGGCGGAUGCCUCCAAA
# Tests used:
# Details in all cases: with glucosamine-6-phosphate
# glucosamine-6-phosphate [1] = variants of: B1; assay: self-cleavage kobs at 640 uM GlcN6P; higher = faster cleavage; RNA array
# Summary of the method: (§1)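 kobs was derived by fitting per-tile medians to one- or two-exponential decays after normalising signals to baseline and to non-cleaving reference variants. Those signals came from barcoded ribozyme variants transcribed in situ by E. coli RNA polymerase on sequenced MiSeq chips, followed through a hybridised Cy3 probe at 37 °C and imaged over ~14 h. Glucosamine-6-phosphate (40 μM to 10 mM) in HEPES/KCl/Mg(OAc)2 buffer was flowed in. Weighted Michaelis–Menten fits across concentrations then gave kcat and KM.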
# glucosamine-6-phosphate [2] = variants of: B1; assay: self-cleavage kobs at 2500 uM GlcN6P; higher = faster cleavage; RNA array
# Summary of the method: as §1
# glucosamine-6-phosphate [3] = variants of: B1; assay: self-cleavage kobs at 10000 uM GlcN6P; higher = faster cleavage; RNA array
# Summary of the method: as §1
# glucosamine-6-phosphate [4] = variants of: B1; assay: self-cleavage kobs at 160 uM GlcN6P; higher = faster cleavage; RNA array
# Summary of the method: as §1
Variant,self-cleavage kobs at 640 uM GlcN6P (glucosamine-6-phosphate [1]),self-cleavage kobs at 2500 uM GlcN6P (glucosamine-6-phosphate [2]),self-cleavage kobs at 10000 uM GlcN6P (glucosamine-6-phosphate [3]),self-cleavage kobs at 160 uM GlcN6P (glucosamine-6-phosphate [4])
G7C G35A A42G,< 1e-05 s⁻¹,< 1e-05 s⁻¹,–,–
C8G A53C U55C U65C C71A,< 1e-05 s⁻¹,–,< 1e-05 s⁻¹,–
C10A U55C,< 1e-05 s⁻¹,–,–,–
G9U U30G G51A,< 1e-05 s⁻¹,< 1e-05 s⁻¹,–,–
C8U G35U A39U C70U,< 1e-05 s⁻¹,< 1e-05 s⁻¹,–,–
G7U G35A C68A,< 1e-05 s⁻¹,< 1e-05 s⁻¹,–,–
G9A G44U C70U,< 1e-05 s⁻¹,–,–,–
G9U G13C A42U,< 1e-05 s⁻¹,< 1e-05 s⁻¹,–,< 1e-05 s⁻¹
G9U A36C G38U G60U C71A,< 1e-05 s⁻¹,< 1e-05 s⁻¹,–,–
C10A G13U C16A U56G U65A,< 1e-05 s⁻¹,–,–,–
G7U A53U G63U C67U,< 1e-05 s⁻¹,< 1e-05 s⁻¹,–,< 1e-05 s⁻¹
C8A A15G U31G A36C,< 1e-05 s⁻¹,–,–,–
G7U C34G A42G G62C,< 1e-05 s⁻¹,–,–,–
G7U G32U A52G A64U,< 1e-05 s⁻¹,< 1e-05 s⁻¹,–,–
C10A A39C C50U,< 1e-05 s⁻¹,–,–,–
C8G G9C U55G U69G,< 1e-05 s⁻¹,–,–,< 1e-05 s⁻¹
G9U A12U A42C,< 1e-05 s⁻¹,–,–,–
C11A C16G A39G G41U U56A,< 1e-05 s⁻¹,< 1e-05 s⁻¹,–,–
C10A C61G C67G C71G,0.000346 ± 8.8e-05 s⁻¹,0.000167 ± 8.1e-05 s⁻¹,–,–
G9C G13A A15U G29A C67U C68A,< 1e-05 s⁻¹,–,–,–
C11A G32A,< 1e-05 s⁻¹,–,–,< 1e-05 s⁻¹
G9A A14U G63U,< 1e-05 s⁻¹,< 1e-05 s⁻¹,–,–
G9U G59C,< 1e-05 s⁻¹,< 1e-05 s⁻¹,< 1e-05 s⁻¹,< 1e-05 s⁻¹

Variant,self-cleavage kobs at 640 uM GlcN6P (glucosamine-6-phosphate [1]),self-cleavage kobs at 2500 uM GlcN6P (glucosamine-6-phosphate [2]),self-cleavage kobs at 10000 uM GlcN6P (glucosamine-6-phosphate [3]),self-cleavage kobs at 160 uM GlcN6P (glucosamine-6-phosphate [4])
C10G A15C G35C A39G,< 1e-05 s⁻¹,–,–,–
C10A G63A,< 1e-05 s⁻¹,–,< 1e-05 s⁻¹,< 1e-05 s⁻¹
G7C A15G G40U G41A C67U,< 1e-05 s⁻¹,–,–,–
C10U A36U G51U,< 1e-05 s⁻¹,< 1e-05 s⁻¹,–,–
C11A A12U G35A C70G,< 1e-05 s⁻¹,–,–,–
G7U G44C G59A C70G,< 1e-05 s⁻¹,< 1e-05 s⁻¹,–,–
C11A A39G,0.000101 ± 2.7e-05 s⁻¹,0.000121 ± 2.7e-05 s⁻¹,–,–
C8G G32C C71U,< 1e-05 s⁻¹,–,–,–
G7U G35U U46A U57G C71U,< 1e-05 s⁻¹,–,–,–
C8G A53U G59A,< 1e-05 s⁻¹,–,–,–
C8U G9C,< 1e-05 s⁻¹,< 1e-05 s⁻¹,< 1e-05 s⁻¹,< 1e-05 s⁻¹
C8A U46G,< 1e-05 s⁻¹,< 1e-05 s⁻¹,–,< 1e-05 s⁻¹
G7C G29U,< 1e-05 s⁻¹,< 1e-05 s⁻¹,< 1e-05 s⁻¹,< 1e-05 s⁻¹
C8A U49G C68G,0.000875 ± 0.00033 s⁻¹,–,–,–
G9C A15G A42C G66C,< 1e-05 s⁻¹,–,–,–
G9U G37U,< 1e-05 s⁻¹,< 1e-05 s⁻¹,–,< 1e-05 s⁻¹
C8A C34G C61G,< 1e-05 s⁻¹,–,–,–
C10G C11A U31C G35C C70G,0.00013 ± 6.3e-05 s⁻¹,–,–,–
C10A U31G A33C G35A G40C,< 1e-05 s⁻¹,–,–,–
C8G A14C G29U A52G,< 1e-05 s⁻¹,–,–,–
C10U U46C G51U,< 1e-05 s⁻¹,–,–,–
C8U G35C A36C G41U U49C,< 1e-05 s⁻¹,< 1e-05 s⁻¹,–,–
G9A G38C U56G G63A C68G,< 1e-05 s⁻¹,< 1e-05 s⁻¹,–,< 1e-05 s⁻¹

Variant,self-cleavage kobs at 640 uM GlcN6P (glucosamine-6-phosphate [1]),self-cleavage kobs at 2500 uM GlcN6P (glucosamine-6-phosphate [2]),self-cleavage kobs at 10000 uM GlcN6P (glucosamine-6-phosphate [3]),self-cleavage kobs at 160 uM GlcN6P (glucosamine-6-phosphate [4])
G7U U30G G63U,< 1e-05 s⁻¹,–,–,–
G7C G41C A52U,< 1e-05 s⁻¹,–,–,–
G7A U45G C50U,< 1e-05 s⁻¹,< 1e-05 s⁻¹,–,–
C8U C68U,< 1e-05 s⁻¹,< 1e-05 s⁻¹,–,< 1e-05 s⁻¹
C8A G41U G62A,< 1e-05 s⁻¹,< 1e-05 s⁻¹,–,–
C8G C11U A15U G29C G41U,< 1e-05 s⁻¹,–,< 1e-05 s⁻¹,–
G9U G44U A48U,< 1e-05 s⁻¹,–,–,< 1e-05 s⁻¹
C8A A33U U55G,< 1e-05 s⁻¹,–,< 1e-05 s⁻¹,–
C10A C34U C50G G62U,0.000144 ± 4.8e-05 s⁻¹,8.51e-05 ± 2.1e-05 s⁻¹,–,0.00045 ± 0.00013 s⁻¹
G7C A48C,< 1e-05 s⁻¹,< 1e-05 s⁻¹,< 1e-05 s⁻¹,< 1e-05 s⁻¹
G7C G32C A42G C61U A64G,< 1e-05 s⁻¹,< 1e-05 s⁻¹,–,–
C8U G9A A15U A39G,< 1e-05 s⁻¹,< 1e-05 s⁻¹,–,–
G7C G13C U31A U49C,< 1e-05 s⁻¹,–,< 1e-05 s⁻¹,–
G7U C50A,< 1e-05 s⁻¹,–,< 1e-05 s⁻¹,< 1e-05 s⁻¹
G7U U46A C68U,< 1e-05 s⁻¹,–,–,–
C8G G32U,< 1e-05 s⁻¹,< 1e-05 s⁻¹,–,–
C11G U45G C71U,< 1e-05 s⁻¹,< 1e-05 s⁻¹,–,–
G7U G44A C71U,< 1e-05 s⁻¹,< 1e-05 s⁻¹,–,–
C8U A52U G60U C68U,< 1e-05 s⁻¹,–,–,–
C8U U47G,< 1e-05 s⁻¹,–,–,–
G9U A36G A39U,< 1e-05 s⁻¹,< 1e-05 s⁻¹,–,–
G9A C16G U30G A52C,< 1e-05 s⁻¹,< 1e-05 s⁻¹,–,–
G9A U47A,< 1e-05 s⁻¹,< 1e-05 s⁻¹,–,< 1e-05 s⁻¹

Variant,self-cleavage kobs at 640 uM GlcN6P (glucosamine-6-phosphate [1]),self-cleavage kobs at 2500 uM GlcN6P (glucosamine-6-phosphate [2]),self-cleavage kobs at 10000 uM GlcN6P (glucosamine-6-phosphate [3]),self-cleavage kobs at 160 uM GlcN6P (glucosamine-6-phosphate [4])
C8G A14U G40C G63A,< 1e-05 s⁻¹,–,< 1e-05 s⁻¹,–
G7C A33C G51A G62U,< 1e-05 s⁻¹,–,–,–
C11A U30G,6.39e-05 ± 1.1e-05 s⁻¹,0.000172 ± 5.6e-05 s⁻¹,0.000422 ± 9.6e-05 s⁻¹,–
G9C C11A A33U C71U,< 1e-05 s⁻¹,< 1e-05 s⁻¹,–,< 1e-05 s⁻¹
C10A A14G U69G,0.000195 ± 7.6e-05 s⁻¹,6.53e-05 ± 2.3e-05 s⁻¹,–,0.000148 ± 5.1e-05 s⁻¹
G9U C10U U30A C34U U49A G62U,< 1e-05 s⁻¹,–,–,–
G7U A42C G59U,< 1e-05 s⁻¹,< 1e-05 s⁻¹,< 1e-05 s⁻¹,< 1e-05 s⁻¹
G7C G29U C70A,< 1e-05 s⁻¹,–,–,< 1e-05 s⁻¹
C11A U31G,4.58e-05 ± 1.1e-05 s⁻¹,0.000179 ± 3.7e-05 s⁻¹,0.000253 ± 5.7e-05 s⁻¹,–
G9A G38A G51A,< 1e-05 s⁻¹,< 1e-05 s⁻¹,–,< 1e-05 s⁻¹
C10U C11G G13U A48U C58A,< 1e-05 s⁻¹,< 1e-05 s⁻¹,–,–
C8G A15U A36G G44A,< 1e-05 s⁻¹,< 1e-05 s⁻¹,–,–
G9A C10A U30C,< 1e-05 s⁻¹,< 1e-05 s⁻¹,–,–
G7C U31A G35U U65G,< 1e-05 s⁻¹,< 1e-05 s⁻¹,< 1e-05 s⁻¹,< 1e-05 s⁻¹
G7C U30G G43A,< 1e-05 s⁻¹,–,–,–
G9U G43A A48G,< 1e-05 s⁻¹,–,–,–
C11G U31A G43U U49A,< 1e-05 s⁻¹,–,< 1e-05 s⁻¹,< 1e-05 s⁻¹
C10G U49A U57C G59U,< 1e-05 s⁻¹,–,–,–
C11A C16U U30G A36G A39C U47G,< 1e-05 s⁻¹,< 1e-05 s⁻¹,–,–
G7C C8U,< 1e-05 s⁻¹,–,–,–
C10G G40U C71U,< 1e-05 s⁻¹,< 1e-05 s⁻¹,–,–
G7U U49C,< 1e-05 s⁻¹,< 1e-05 s⁻¹,< 1e-05 s⁻¹,< 1e-05 s⁻¹
C10U A15C C34G C58G,< 1e-05 s⁻¹,< 1e-05 s⁻¹,–,–

Variant,self-cleavage kobs at 640 uM GlcN6P (glucosamine-6-phosphate [1]),self-cleavage kobs at 2500 uM GlcN6P (glucosamine-6-phosphate [2]),self-cleavage kobs at 10000 uM GlcN6P (glucosamine-6-phosphate [3]),self-cleavage kobs at 160 uM GlcN6P (glucosamine-6-phosphate [4])
G9U C50U,< 1e-05 s⁻¹,–,< 1e-05 s⁻¹,< 1e-05 s⁻¹
G7C C11A U31A A52G,< 1e-05 s⁻¹,–,–,–
C8U C11U U55A G62A,< 1e-05 s⁻¹,< 1e-05 s⁻¹,–,–
G7U A33U A48U C67U C68U,< 1e-05 s⁻¹,–,–,–
C10U C11U C67U,< 1e-05 s⁻¹,< 1e-05 s⁻¹,–,–
C8A G9A A14C A42U A53U A64U,< 1e-05 s⁻¹,< 1e-05 s⁻¹,–,–
G7A G40U C58U,< 1e-05 s⁻¹,< 1e-05 s⁻¹,–,–
G7U G43U,< 1e-05 s⁻¹,–,< 1e-05 s⁻¹,< 1e-05 s⁻¹
G7U G37A A48C,< 1e-05 s⁻¹,< 1e-05 s⁻¹,< 1e-05 s⁻¹,< 1e-05 s⁻¹
C10U C11G A14G G43C A53C,< 1e-05 s⁻¹,< 1e-05 s⁻¹,–,< 1e-05 s⁻¹
G9U A12C G37C G41C,< 1e-05 s⁻¹,< 1e-05 s⁻¹,–,< 1e-05 s⁻¹
G9C G37U U56G,< 1e-05 s⁻¹,< 1e-05 s⁻¹,–,–
C10U A12G G32U G43U G59A,< 1e-05 s⁻¹,–,–,< 1e-05 s⁻¹
C10U G43C U47C A52C U65C G66A C70G,< 1e-05 s⁻¹,–,–,< 1e-05 s⁻¹
C10G C16U G29A G51U A52G,< 1e-05 s⁻¹,< 1e-05 s⁻¹,–,–
C8U G32U C68A,< 1e-05 s⁻¹,–,–,–
C10G C11A A39U,< 1e-05 s⁻¹,< 1e-05 s⁻¹,–,–
C8G U30G G59C,< 1e-05 s⁻¹,< 1e-05 s⁻¹,–,–
C8G C10U G60U,< 1e-05 s⁻¹,–,< 1e-05 s⁻¹,< 1e-05 s⁻¹
C10U G43A C50G,< 1e-05 s⁻¹,–,–,–
C8G G13C A52U U69G,< 1e-05 s⁻¹,< 1e-05 s⁻¹,–,–
G7C A15U U55G G60A,< 1e-05 s⁻¹,< 1e-05 s⁻¹,–,< 1e-05 s⁻¹
